Starred links: 1 amine or outer side, 2 acyl side, 3 side chain; linkers in the order of their positions; H or OH if unused. Positions of bridges follow the written chain, without caps; N, C: chain ends. Non-standard residues stand in square brackets, D forms with d. Residues, ends and D or L forms follow the SMILES beside them. *: point of attachment. X1 = CC[C@H](C)[C@@H](N[*:1])[C@@H](O)CC(=O)O[C@H](C(=O)[C@H](C)C(=O)[*:2])C(C)C; NMeY = CN[C@@H](Cc1ccc(O)cc1)C(=O)O; dNMeL = CN[C@H](CC(C)C)C(=O)O; Pyruvoyl = CC(=O)C(=O)*
System: P-388 mouse leukemia cells
Experiment: P-388 in vivo activity
Details: QD 1-9, IP, significant activity T/C ≧ 125

CC[C@H](C)[C@H]1NC(=O)[C@@H](NC(=O)[C@@H](CC(C)C)N(C)C(=O)[C@@H]2CCCN2C(=O)C(C)=O)[C@@H](C)OC(=O)[C@H](Cc2ccc(OC)cc2)N(C)C(=O)[C@@H]2CCCN2C(=O)[C@H](CC(C)C)NC(=O)[C@@H](C)C(=O)[C@H](C(C)C)OC(=O)C[C@@H]1O [DDB, dehydrodidemnin B] (Pyruvoyl-P[dNMeL]T[X1]LP[NMeY](Me); ester 3-C)
P388 % T/C (80 μg/kg/injn): 195% | P388 % T/C (160 μg/kg/injn): 210%

— patent publication USRE39887E1, “Dehydrodidemnin B” (Pharma Mar, S.A., priority 1989, dated 2007)
